# Source: publication PMC12136788
# Some of the results follow.
# B1: chr2:144079538:144079539:-_ENSMUSG00000027423_ENSMUST00000110030|mus_mus|motif|central (ssRNA)
# RNA: GGGAGUUCUACAGUCCGACGAUCGGCCUUGUCCAAAGCUUUGUUUGAAUUCUCAUAGUCAAUUAGGGCUUUGGUACGUCGGUACAAGAGAUCCUUUGCAGCCUCUAUGUUGAGCAUGUAGUAUCGGAGGAGCUCUGUCAGUUUCAACAGAGGAUUGAGCAUCA
# B2: chr6:83912051:83912052:+_ENSMUSG00000030016_ENSMUST00000032088|mus_mus|FALSE|FALSE (ssRNA)
# RNA: GGGAGUUCUACAGUCCGACGAUCUGCCUUUUUAUGAGAUGAUAAAACCAAAAUGUCCUUCAAAGCACCAAAUGGUUUUGCUAAGUUGUAAAUUUCUUCUGUAGAAUAUCCUUUGUUAGGCAAAUUAGAAAUAAAUACUACACUCAACAGAGGAUUGAGCAUCA
# B3: 125270748_125273069_130_CDS_ENSMUSG00000030654_ENSMUST00000032888|mouse|control|control (ssRNA)
# RNA: GGGAGUUCUACAGUCCGACGAUCCAGCUGCUCUUCAAGACUUGCAGUCUCCACGGCCAGCAGGUUGCUGCUGCGGUUAUCCCCCUCCGCCAUCGUUCCAGACUCGCGGUUAUCAACGAGCGAACACACACUAUCCCCCCAACACAACAGAGGAUUGAGCAUCA
# B4: chr7:90019327:90019328:+_ENSMUSG00000057706_ENSMUST00000082237|mus_hu|FALSE|FALSE (ssRNA)
# RNA: GGGAGUUCUACAGUCCGACGAUCUGAAAUAUAAUUUUUCAAGUCAAAAAAGAAUAAAAUACUUCAAUCUGUAUUAAUGCAAUUUCUCUUUAAAACUUUUAAACGUUUUUAAUAUAUAAGAGAUAUGUUACAGUUUCUUUAACUCAACAGAGGAUUGAGCAUCA
# B5: chr9:66219948:66219949:+_ENSMUSG00000038664_ENSMUST00000042824|mus_hu|FALSE|FALSE (ssRNA)
# RNA: GGGAGUUCUACAGUCCGACGAUCCUGCUUCACCUUGCCUUUGUCAUGGUAUUUAUUAGAAAGUGCAUAAAAGACACGCUGGAGUACAAGCAGUCGUUUUCUAAGUGCCCCGGCAAAUGGGGAAUCUGAACAUACCAUCUUUGCCAACAGAGGAUUGAGCAUCA
# B6: chr1:193054138:193054139:+_ENSG00000116747_ENST00000432079|hu_mus|FALSE|FALSE (ssRNA)
# RNA: GGGAGUUCUACAGUCCGACGAUCUUAUACUCUGUAUCACACUUUCAGAACAAAGGUGUGAUUCAGUGAAGUAAAACACCACUAUUGUACAGUGUCUAUUAAAACGAAGUUCUCUACAGAGGAAGCUACAGUAUCCUGAAGACUCAACAGAGGAUUGAGCAUCA
# B7: chr2:160775391:160775392:-_ENSMUSG00000057133_ENSMUST00000039782|mus_mus|FALSE|FALSE (ssRNA)
# RNA: GGGAGUUCUACAGUCCGACGAUCGAUGAGUCCAGGAGACACUCCUGGGAUGAGAAAUGGGUUGAAAGCCACAGGACUACUAGUAGUUAUUGUGGGUUCUGACUGAUCAGAAAACGGACUAGGGCCAGGCUUGUCGUCUACCAGCAACAGAGGAUUGAGCAUCA
# B8: 43513707_43515436_3362_CDS_ENSG00000052841_ENST00000039989|human|control|control (ssRNA)
# RNA: GGGAGUUCUACAGUCCGACGAUCCUUCUUCAGCAUUAAGUGACACUGGAUGGUCUGGAUUCGGUUCUUGGCUGGGACAAACUCGGGCUGAAGCUUCAAUGUGGAUUCAUACCACACCAGUGCUUUUUCAAAUUCUUCCAUUGCCAACAGAGGAUUGAGCAUCA
# B9: chr17:7477944:7477945:+_ENSG00000161960_ENST00000293831|hu_mus|FALSE|FALSE (ssRNA)
# RNA: GGGAGUUCUACAGUCCGACGAUCAUAACCCUUGAUACAAGGAAGAAUAGCUCGCUGCUGGAUGGCAGAGGGCUUCUCAAAACCAUAGGCAUAAAUACCACGGAGGAGGGACUCUGAGAGAUUCAUGUCAUCAAAGCUAUCCACCAACAGAGGAUUGAGCAUCA
# B10: chr17:74040031:74040032:-_ENSG00000167881_ENST00000307877|hu_hu|FALSE|FALSE (ssRNA)
# RNA: GGGAGUUCUACAGUCCGACGAUCAUACAGGACAAGGGCUUCGCUCCACUUCUUCACCAGCACAUAGGACUGAGCAAUGAAAAAACACCUGUAAGCUUUGAACACCAGAGUCUUGAGGCCUAUCUCUUUCUGGAAGGCUUUGUCCAACAGAGGAUUGAGCAUCA
# B11: chr2:47387409:47387410:-_ENSG00000143933_ENST00000272298|hu_hu|FALSE|FALSE (ssRNA)
# RNA: GGGAGUUCUACAGUCCGACGAUCAUACAACUUGGAAUGGAUUUUGAGGCAAAUUGUGCCAUAAGCAGAUUUUAAGUGGCUAAACAAAGUUUAAAAAGCAAGUAACAAUAAAAGAAAAUGUUUCUGGUACAGGACCAGCAGUACCAACAGAGGAUUGAGCAUCA
# B12: chr2:202488911:202488912:-_ENSG00000155755_ENST00000286196|hu_mus|hu_hu_hu_mus_False|88_108 (ssRNA)
# RNA: GGGAGUUCUACAGUCCGACGAUCAUUUAACAUUUUUUCAUAAUCUCAGAGAUGUUUUCAGCAUUAUGUAACAAAAGCUCAAUUGUAAAUACAUGUAUCUUAUAAAAAUACACUUAAAAACACGAGUGGGGAGCGCAGGCGCCACAACAGAGGAUUGAGCAUCA
# B13: 57741037_57741157_616_CDS_ENSG00000053770_ENST00000261558|human|control|control (ssRNA)
# RNA: GGGAGUUCUACAGUCCGACGAUCACCUCCUAUCAGGAGUCCAUAAAUGGAUGUUUUAUUGAUGCGUGAACAGCUAUCACGACUCUCAACGAAGUCUUUAUCAUCAUCCAAUAAUCUAAGUUCAAAGAGCAGUGCUUUAAGAAACAACAGAGGAUUGAGCAUCA
# B14: chr5:17772112:17772113:-_ENSMUSG00000057614_ENSMUST00000074694|mus_hu|FALSE|FALSE (ssRNA)
# RNA: GGGAGUUCUACAGUCCGACGAUCGUAUAUCCUCAGAAAUCUGAAAUUUUAGUUUUUCAAACCAAAUCUAACGUGGAAUCUAAUGUAAAAUUAAAUUAUUUUAUUUUCUUAAAGUAGGAAAAAUCAAAAUGCAUACAAUGUUUACAACAGAGGAUUGAGCAUCA
# Target: T1, UNK ZnF1-3 (human, UniProt Q9C0B0 31-174)
# T1 sequence: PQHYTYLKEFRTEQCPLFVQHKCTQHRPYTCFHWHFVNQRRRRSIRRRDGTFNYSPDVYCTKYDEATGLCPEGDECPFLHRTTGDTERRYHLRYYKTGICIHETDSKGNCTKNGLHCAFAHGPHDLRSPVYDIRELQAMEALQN
# Experiment: nsRBNS (natural sequence RNA bind-n-seq); RBNS binding buffer (assumed for nsRBNS): 25 mM Tris pH 7.5, 150 mM KCl, 3 mM MgCl2, 0.01% Triton X-100, 500 ug/ml BSA, 20 U/ml SUPERase-In, 4 C; UNK is unkempt and MSI1 is Musashi-1; names of the RNAs are library labels; protein concentration not given here; high values mean tight binding
row,Binder,binding signal
1,B1,1.13 enrichment R
2,B2,0.942 enrichment R
3,B3,1.15 enrichment R
4,B4,0.764 enrichment R
5,B5,1.25 enrichment R
6,B6,0.525 enrichment R
7,B7,1.13 enrichment R
8,B8,0.616 enrichment R
9,B9,1.02 enrichment R
10,B10,2.27 enrichment R
11,B11,1.9 enrichment R
12,B12,0.724 enrichment R
13,B13,0.585 enrichment R
14,B14,1.17 enrichment R
